# Data published in PubChem BioAssay AID651820 (National Center for Advancing Translational Sciences (NCATS), 2012).
# The whole screen tested about 340,000 compounds, of which about 12,000 (3.5%) were called active. This list was built around the results that the source calls inconclusive (neither active nor inactive); the mix of calls is not that of the screen. The call rests on the fitted dose curve; in most records, active means well fitted inhibition curve with a large enough effect; inconclusive means small, poorly fitted or top-dose-only effect, or another doubt; inactive means no such curve, though single readings can be large or run the other way. Potencies of inconclusive entries are left out as doubtful fits.
# Test: qHTS Assay for Inhibitors of Hepatitis C Virus (HCV)
# Conditions: Huh7.5.1 HCVcc-Cre (HCVcc is cell-culture hepatitis C virus) infection, luciferase reporter, 44 h; activity change, negative = inhibition: at 41.8 µM (top of the series)
# Outline: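 Reporter virus HCVcc-Cre (~0.5 moi) infects cells exposed to compound; seeding density 1,000 cells/well with 4 h settling beforehand. Luminescence, 15 sec read, taken 44 h post-infection following a 15 min RT substrate incubation.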
# On the % scale 0 is the no-effect control and ±100 the full control effect; potency means the concentration at half of the fitted maximal effect; tags describe the fitted curve by direction and shape.
SMILES,Potency,"activity change, negative = inhibition"
CCOc1ccc(NS(=O)(=O)c2ccc(C(=O)NCCN3CCOCC3)cc2)cc1,"inconclusive [inhibitor, partial curve, poor fit]",
Cc1ccnc(N/N=C/c2ccco2)n1,inactive,
Cc1nn(-c2ccccc2)c(Cl)c1/C=N/NC(=O)c1ccc(CNc2ccccc2)o1,"inconclusive [inhibitor, partial curve]",
CC(C)c1ccccc1NC(=O)c1ccc2ncsc2c1,inactive,
COc1ccc(C)cc1NC(=O)CCNS(=O)(=O)c1cccc2nonc12,inactive,
COc1ccc(C)cc1NC(=O)c1ccoc1C,active: 14.1 µM,
CCO[C@@H]1OC(C(=O)N2CCN(Cc3ccc4c(c3)OCO4)CC2)=C[C@H](C2CCCCC2)[C@H]1CCCO,"inconclusive [inhibitor, single point]",
CCOC(=O)CN1C(=O)COc2ccc(Cl)cc21,inactive,
CC1CCN(c2ccccc2NC(=O)c2cc([N+](=O)[O-])ccc2N2CCOCC2)CC1,"inconclusive [inhibitor, single point]",
Nc1ccc2cc3[nH]c4cc(N)ccc4c3nc2c1,active: 1.58 µM,
COc1ccccc1C(=O)COC(=O)CCNS(=O)(=O)c1ccc(C)c(C)c1,inactive,
CC[C@]12c3[nH]c4ccccc4c3CCN1C(=O)C(CC(=O)NCc1ccco1)C[C@@H]2C(=O)N1CCN(C(=O)C2CC2)CC1 (stereo partly specified),active: 0.794 µM,
CC[n+]1c(/C=C/c2c[nH]c3ccccc23)ccc2cc(C)ccc21,active: 4.47 µM,
Cc1cc(C)c(Cn2c3ccccc3c3cnn(CC(=O)NCCN4CCOCC4)c(=O)c32)c(C)c1,"inconclusive [inhibitor, single point]",
O=C(Nc1ccc2ccccc2c1)c1ccccc1O,"inconclusive [inhibitor, single point]",
CCS(=O)(=O)N1CCCC(C(=O)NCc2ccc(C)cc2)C1 (stereo unspecified),inactive,
CC(=O)c1ccc(NC(=S)NN2C(C)CCCC2C)cc1 (stereo unspecified),inactive,
CCOC(=O)N=Nc1c2ccccc2c2nc3no[nH]c3nc12,active: 0.562 µM,
COc1cccc(OCC(=O)NN=C2c3ccccc3-c3ccccc32)c1,"inconclusive [inhibitor, full curve, poor fit]",
CN(Cc1nccn1C)C(=O)c1ccc(OC2CCN(CCc3ccccc3)CC2)cc1,"inconclusive [inhibitor, single point]",
COC(=O)C1=C(C)N=C2SC(C#N)=C(N)N2C1c1ccc(OCc2ccccc2)cc1 (stereo unspecified),"inconclusive [inhibitor, single point]",
CCN(Cc1ccccc1)C(=O)c1cc(-c2ccc(OC)c(OC)c2)nc2ccccc12,"inconclusive [inhibitor, single point]",
O=C(NCCNc1ccc([N+](=O)[O-])cc1C(F)(F)F)c1ccccc1F,"inconclusive [inhibitor, single point]",
CCCCCCC(C)(C)c1ccc([C@@H]2C[C@H](O)CC[C@H]2CCCO)c(O)c1,"inconclusive [inhibitor, single point]",

SMILES,Potency,"activity change, negative = inhibition"
Cc1ccc(NC(=O)CN(C)C(=O)Cc2ccccc2F)cc1,inactive,
CCCCC(=O)NNC(=S)NC(=O)C(c1ccccc1)c1ccccc1,"inconclusive [inhibitor, partial curve]",
N=c1ccn2c(n1)OC1C(O)C(CO)OC12 (stereo unspecified),inactive,
CC1CCN(S(=O)(=O)c2ccc(NC(=O)[C@@H]3CCCN3C(=O)c3cccs3)cc2)CC1,"inconclusive [inhibitor, single point]",
O=C(O)C1C2CCC(O2)C1C(=O)NCc1ccncc1 (stereo unspecified),"inconclusive [inhibitor, single point]",
CC(=O)c1cccc(NC(=S)NC(=O)c2ccc(C)cc2)c1,inactive,
O=C(N/N=C/c1ccc(O)cc1)c1[nH]c2ccc(Br)cc2c1-c1ccccc1,inactive,
CCn1c(C(=O)N2CCCC(C(=O)NCCCc3ccccc3)C2)cc2sccc21 (stereo unspecified),"inconclusive [inhibitor, single point]",
COCCNCCCCOc1c(Cl)cc(C)cc1Br,active: 11.2 µM,
C=CCNC(=S)NNc1nc2c(c(=O)[nH]1)C1(CCCC1)Cc1ccccc1-2,inactive,
O=C(NCCCNC(=O)c1ccc(-c2cccc(Cl)c2)o1)c1cnccn1,inactive,
CCC(CO)NCc1ccc(OCC(=O)Nc2cccc(C(F)(F)F)c2)c(OC)c1 (stereo unspecified),"inconclusive [inhibitor, single point]",
C#CCOCCOCCOCCNc1nc(N2CCN(C(=O)Cn3cc(CC(C)O)nn3)CC2)nc(N2CCN(C(=O)[C@H]([C@@H](C)CC)n3cc(CCCN=C(N)N)nn3)CC2)n1 (stereo partly specified),,inactive: -14.2% [at 8.37 µM]
CCc1nccn1CCC(=O)NC1CCCc2c1cnn2-c1ccc(F)cc1F (stereo unspecified),"inconclusive [inhibitor, single point]",
COCc1cc(C)nc(OCC(=O)N/N=C/c2cc(C)n(-c3c(C)cccc3C)c2C)c1C#N,"inconclusive [inhibitor, partial curve]",
COc1ccc(CCNC(=O)c2ccc(Cl)c(S(=O)(=O)N3CCCCCC3)c2)cc1,active: 2.82 µM,
COc1ccc(Cl)cc1NC(=O)CN(C)C(=O)c1cc(-c2cccs2)nn1-c1ccccc1,"inconclusive [inhibitor, single point]",
CCc1cc(C(N)=O)c(NC(=O)c2ccc(OC)cc2)s1,"inconclusive [inhibitor, single point]",
CCCSc1nnc(NC(=O)Nc2ccccc2)s1,inactive,
CCOC(=O)c1c(NC(=O)C2=COCCO2)sc2c1CCN(C(=O)OC)C2,"inconclusive [inhibitor, partial curve]",
O=C1C=C(c2ccc(F)nc2)C[C@@H](c2ccc3c(c2)OCO3)C1,inactive,
COc1ccccc1N1CCN(C(=O)c2sc3nc(C)nc(N4CCN(c5ccccn5)CC4)c3c2C)CC1,"inconclusive [inhibitor, single point]",
O=C(CN(Cc1cccs1)C(=O)CNC(=O)c1ccco1)NC1CCCCC1,inactive,
CC(=O)Nc1ccc(NC(=O)C(C)OC(=O)C2CCCCC2)cc1 (stereo unspecified),"inconclusive [inhibitor, partial curve]",

SMILES,Potency,"activity change, negative = inhibition"
OC1(c2ccc(Cl)cc2)CN(c2ccccc2)C2=[N+]1CCS2 (stereo unspecified),active: 12.6 µM,
Cc1ccc(S(=O)(=O)N2CCC(=O)N(CCOC(=O)Nc3cccc(Cl)c3)CC2)cc1,"inconclusive [inhibitor, partial curve]",
O=C(Nc1ccccc1N1CCOCC1)c1cc(-c2ccco2)nc2ccccc12,"inconclusive [inhibitor, partial curve]",
COc1ccc(N2CCN(CC(O)COc3cc(C)ccc3C)CC2)cc1 (stereo unspecified),"inconclusive [inhibitor, single point]",
CN1C(=S)SC(/[N+]([O-])=C/c2cccnc2)C1(C)C (stereo unspecified),inactive,
CCOC(=O)c1c(NC(=O)CC)sc(C(C)=O)c1C,"inconclusive [inhibitor, full curve, poor fit]",
CCOc1cccc(-c2nn(-c3ccccc3)cc2/C=C(/C#N)C(=O)NCCCn2ccnc2)c1,active: 17.8 µM,
Cc1cc(OCC(=O)NCCCN(C)C)cc(C)c1Br,"inconclusive [inhibitor, single point]",
CN1/C(=C/c2cc[n+](C)c3ccccc23)C=Cc2ccccc21,"inconclusive [inhibitor, partial curve]",
Oc1cc(Cc2ccccc2)cnc1CN1CCCCC1,inactive,
Cc1ccc2cc(CN(CC(C)C)S(=O)(=O)c3ccccc3)c(=O)[nH]c2c1,"inconclusive [inhibitor, single point]",
CCOc1ccc(OCCNC(=O)C(NC(=O)c2c(F)cccc2F)C(C)C)cc1 (stereo unspecified),"inconclusive [inhibitor, full curve]",
N=C(N)SCc1ccccn1,,inconclusive: -33.1% [inhibitor]
Cc1ccc(N2CC(C(=O)Nc3ccc(C)c(S(=O)(=O)N(C)C)c3)CC2=O)cc1 (stereo unspecified),"inconclusive [inhibitor, single point]",
Cc1cccc2c1N(CCCOc1ccc(C(C)(C)C)cc1)C(=O)C2=O,"inconclusive [inhibitor, partial curve]",
COc1ccc(-c2cc(-c3ccccc3)nc(N)n2)c(O)c1,"inconclusive [inhibitor, single point]",
COc1ccc(/C=N/NC(=O)c2ccc(CSc3nc(C)cc(C)n3)cc2)c(OC)c1OC,"inconclusive [inhibitor, partial curve, poor fit]",
COc1ccc(CNC(=O)c2cccc(-c3ccc(C)c4ccccc34)n2)cc1,"inconclusive [inhibitor, partial curve]",
O=C(COc1ccc(S(=O)(=O)NC2CCCCC2)cc1)NC1CC1,"inconclusive [inhibitor, single point]",
COc1ccccc1Nc1ncc(C(=O)Nc2ccc(OC)c(OC)c2)c2ccccc12,"inconclusive [inhibitor, full curve]",
O=C1CC(C(=O)Nc2cccc3ccccc23)C2(CCCC2)O1 (stereo unspecified),inactive,
CCCn1c(SCC(=O)N2CCCCC2)nnc1C(C)C,inactive,
O=C(Oc1ccnc2cc(Cl)ccc12)N1CCCCCC1,"inconclusive [inhibitor, single point]",
